The results in this text go back to the supplement of paper PMC8285479.

The structures appear in SMILES notation. Counter-ions that a name gives are not always drawn. ± gives the standard deviation of the averaged measurements. In all, about 1,900 compounds were measured (“normalised cell viability (NPI; 0 = phenylarsine oxide control, 1 = DMSO control)”: median about 1, lowest 2% from about 0.039 on). This is one part of the list.

This assay concerns NCI-H1944. Description: normalised cell viability (NPI; 0 = phenylarsine oxide control, 1 = DMSO control) (fraction of DMSO control); NCI-H1944 is a non-small cell lung cancer line; higher = more viable cells (less compound toxicity). To be noted: 6 days.
The mark [1] stands for this setting: glucocorticoid arm: hydrocortisone 2.75 uM co-treatment, compound 1 µM.
Where [2] appears, read: glucocorticoid arm: hydrocortisone 2.75 uM co-treatment, compound 5 µM.
[3] abbreviates: glucocorticoid arm: hydrocortisone 2.75 uM pre-treated 2 days and continued, compound 1 µM.
The mark [4] stands for this setting: glucocorticoid arm: hydrocortisone 2.75 uM pre-treated 2 days and continued, compound 5 µM.
[5] abbreviates: glucocorticoid arm: vehicle, compound 1 µM.
Setting [6] is: glucocorticoid arm: vehicle, compound 5 µM.
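Note: CTB read-out in 384-well plates, mean of triplicate wells, normalised per plate against 1 µM phenylarsine oxide and 0.1% DMSO, compounds added 24 h after seeding.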

For `OC[C@@H](O)CN1CCN(c2ccccc2)CC1` [Levodropropizine], the normalised cell viability under setting [1] came out at 1.007 ± 0.0058; the normalised cell viability under setting [2] is 0.993 ± 0.0089; the normalised cell viability under setting [3] was 1.027 ± 0.0058; the normalised cell viability under setting [4] was found to be 0.996 ± 0.025; the normalised cell viability under setting [5] is 1.002 ± 0.0072; the normalised cell viability under setting [6] was 0.9823 ± 0.0045.
Turning to `COc1cc(N)c(Cl)cc1C(=O)OCCN1CCCCC1`, the normalised cell viability was determined as 0.9993 ± 0.0097 under setting [1]; 1.013 ± 0.0058 under setting [2]; 1.01 ± 0.013 under setting [3]; 1.05 ± 0.071 under setting [4]; 0.9953 ± 0.0057 under setting [5]; 1.01 ± 0.017 under setting [6].
For the compound `CC[C@H](c1ccc(O)cc1)[C@@H](CC)c1ccc(O)cc1` [Hexestrol], the normalised cell viability amounted to 1.03 ± 0.015 under setting [1]; 0.995 ± 0.022 under setting [2]; 1.04 ± 0.01 under setting [3]; 1.01 ± 0.016 under setting [4]; 1 ± 0.0087 under setting [5]; 0.9943 ± 0.006 under setting [6].
As to `Nc1ncnc2c1ncn2C1CCCC1` [9-cyclopentyladenine monomethanesulfonate], the normalised cell viability runs as follows: under setting [1], 1.01 ± 0.012; under setting [2], 1.01 ± 0.017; under setting [3], 0.9837 ± 0.0021; under setting [4], 1.02 ± 0.028; under setting [5], 0.9907 ± 0.0021; under setting [6], 1.002 ± 0.0068.
As to `O=C1NC(c2cccc([N+](=O)[O-])c2)=CCN1c1ccccc1O` [Icilin], the normalised cell viability turned out to be 0.9937 ± 0.0093 under setting [1]; 0.991 ± 0.011 under setting [2]; 0.9937 ± 0.0042 under setting [3]; 0.966 ± 0.015 under setting [4]; 0.978 ± 0.0036 under setting [5]; 0.981 ± 0.0044 under setting [6].
As to `CN1CCN(C(=O)c2cc3cc(Cl)ccc3[nH]2)CC1`, the normalised cell viability reads like this: under setting [1], 1.027 ± 0.0058; under setting [2], 1.023 ± 0.0058; under setting [3], 1.013 ± 0.0058; under setting [4], 1.03 ± 0.021; under setting [5], 1.007 ± 0.0058; under setting [6], 1.01 ± 0.01.
For `CCCN(CC1CC1)c1nc(C)nc(Nc2c(Cl)cc(Cl)cc2Cl)c1Cl`, the normalised cell viability by setting is: under setting [1], 1.02 ± 0.01; under setting [2], 1.043 ± 0.0058; under setting [3], 1.02 ± 0.021; under setting [4], 1.03 ± 0.021; under setting [5], 0.988 ± 0.0036; under setting [6], 0.9957 ± 0.0035.
For the compound `Cn1nnc2c(C(N)=O)ncn2c1=O` [Temozolomide], the normalised cell viability runs as follows: under setting [1], 1.01 ± 0.01; under setting [2], 1.01 ± 0.017; under setting [3], 1.001 ± 0.0085; under setting [4], 1.02 ± 0.01; under setting [5], 1.003 ± 0.0058; under setting [6], 1.01.
For `C[C@]12CC[C@H](O)CC1=CC[C@@H]1[C@@H]2CC[C@]2(C)C(c3cccnc3)=CC[C@@H]12` [Abiraterone], the normalised cell viability is 1.043 ± 0.0058 under setting [1]; 1.18 ± 0.023 under setting [2]; 1.05 under setting [3]; 1.11 ± 0.025 under setting [4]; 0.848 ± 0.021 under setting [5]; 1.05 ± 0.011 under setting [6].
For the compound `C=C1C(=O)O[C@H]2[C@H]1CC/C(C)=C/CC[C@@]1(C)O[C@@H]21` [Parthenolide], the normalised cell viability by setting is: under setting [1], 1.02 ± 0.011; under setting [2], 1.04 ± 0.032; under setting [3], 1.02 ± 0.021; under setting [4], 1.07 ± 0.064; under setting [5], 1.01; under setting [6], 0.785 ± 0.08.
In the case of `Nc1nc(N)c2nc(-c3ccccc3)c(N)nc2n1` [Triamterene], the normalised cell viability runs as follows: under setting [1], 1.01; under setting [2], 0.997 ± 0.02; under setting [3], 1.01 ± 0.024; under setting [4], 1.03 ± 0.01; under setting [5], 1.017 ± 0.0058; under setting [6], 1.003 ± 0.0058.
As to `Cc1ccc(C(=O)Cn2c3c(sc2=N)CCCC3)cc1` [Pifithrin-α], the normalised cell viability was 1.027 ± 0.0058 under setting [1]; 1.1 ± 0.015 under setting [2]; 1.02 ± 0.011 under setting [3]; 1.07 ± 0.011 under setting [4]; 1.007 ± 0.0058 under setting [5]; 1.023 ± 0.0058 under setting [6].
As to `CC(C)(C)NC(=O)[C@H]1CC[C@H]2[C@@H]3CC[C@H]4NC(=O)C=C[C@]4(C)[C@H]3CC[C@]12C` [Finasteride], the normalised cell viability is, setting by setting: under setting [1], 0.991 ± 0.005; under setting [2], 1.01 ± 0.014; under setting [3], 0.9953 ± 0.0031; under setting [4], 1 ± 0.015; under setting [5], 1 ± 0.017; under setting [6], 1.03 ± 0.044.
For `C=CC[N+]1([C@H]2C[C@H]3[C@@H]4CC[C@H]5C[C@H](O)[C@@H](N6CCOCC6)C[C@]5(C)[C@H]4CC[C@]3(C)[C@H]2OC(C)=O)CCCC1` [Rocuronium Bromide], the normalised cell viability amounted to 1.02 ± 0.01 under setting [1]; 1.03 ± 0.025 under setting [2]; 1.03 ± 0.011 under setting [3]; 1.03 ± 0.01 under setting [4]; 0.9947 ± 0.0059 under setting [5]; 0.9973 ± 0.0031 under setting [6].
`C[C@H](O)[C@H](O)[C@H]1CNc2nc(N)[nH]c(=O)c2N1` [(6R)-5,6,7,8-Tetrahydro-L-biopterin dihydrochloride]: the normalised cell viability worked out at 1.02 ± 0.011 under setting [1]; 1.01 ± 0.026 under setting [2]; 0.923 ± 0.18 under setting [3]; 1.001 ± 0.009 under setting [4]; 1.02 ± 0.01 under setting [5]; 1.02 under setting [6].
For the compound `Cn1cnc(=N)c2[nH]cnc21` [3-Methyladenine], the normalised cell viability reads like this: under setting [1], 1 ± 0.014; under setting [2], 1.01 ± 0.014; under setting [3], 0.9967 ± 0.0015; under setting [4], 1.01 ± 0.01; under setting [5], 1.001 ± 0.0081; under setting [6], 1 ± 0.016.
With `Nc1ncnc2c1ncn2[C@@H]1O[C@@H]2COP(=O)(O)O[C@H]2[C@H]1O` [Adenosine 3',5'-cyclic monophosphate], the normalised cell viability under setting [1] turned out to be 0.986 ± 0.014; the normalised cell viability under setting [2] was 0.9813 ± 0.007; the normalised cell viability under setting [3] was 0.998 ± 0.011; the normalised cell viability under setting [4] came to 0.965 ± 0.019; the normalised cell viability under setting [5] worked out at 0.991 ± 0.016; the normalised cell viability under setting [6] stood at 0.9797 ± 0.0074.
Consider `CC(C)C(=O)c1c(C(C)C)nn2ccccc12` [Ibudilast], for which the normalised cell viability reads like this: under setting [1], 1.017 ± 0.0058; under setting [2], 0.984 ± 0.02; under setting [3], 1.01 ± 0.015; under setting [4], 0.997 ± 0.024; under setting [5], 1.013 ± 0.0058; under setting [6], 1.013 ± 0.0058.
For the compound `CC(CN(C)C)CN1c2ccccc2CCc2ccccc21` (stereo not drawn) [Trimipramine maleate], the normalised cell viability worked out at 0.9743 ± 0.0072 under setting [1]; 0.928 ± 0.015 under setting [2]; 0.801 ± 0.34 under setting [3]; 1.01 ± 0.01 under setting [4]; 0.9953 ± 0.0064 under setting [5]; 0.993 ± 0.0066 under setting [6].
Take `COC(=O)[C@H]1[C@H]2C[C@H]3c4[nH]c5ccccc5c4CCN3C[C@H]2CC[C@@H]1O` [Rauwolscine hydrochloride]: the normalised cell viability under setting [1] is 0.9973 ± 0.0038; the normalised cell viability under setting [2] is 1.01 ± 0.011; the normalised cell viability under setting [3] amounted to 0.897 ± 0.18; the normalised cell viability under setting [4] is 0.998 ± 0.013; the normalised cell viability under setting [5] turned out to be 0.9967 ± 0.0011; the normalised cell viability under setting [6] was 0.9827 ± 0.0083.
For `COC(=O)C(C)(N)Cc1ccc(O)cc1` (racemic) [alpha-Methyl-DL-tyrosine methyl ester hydrochloride], the normalised cell viability by setting is: under setting [1], 1.004 ± 0.01; under setting [2], 1.01 ± 0.034; under setting [3], 1.01 ± 0.023; under setting [4], 0.999 ± 0.011; under setting [5], 0.9943 ± 0.0057; under setting [6], 1.004 ± 0.0098.
For `CC(C)NCC(O)COc1cccc2[nH]ccc12` (stereo not drawn) [Pindolol], the normalised cell viability under setting [1] was 1; the normalised cell viability under setting [2] came out at 1 ± 0.013; the normalised cell viability under setting [3] came to 0.9967 ± 0.0023; the normalised cell viability under setting [4] was 1.03 ± 0.021; the normalised cell viability under setting [5] was determined as 1.01; the normalised cell viability under setting [6] amounted to 1.02 ± 0.021.
Turning to `O=C(Nc1ccc([N+](=O)[O-])cc1Cl)c1cc(Cl)ccc1O` [Niclosamide], the normalised cell viability under setting [1] is 1.013 ± 0.0058; the normalised cell viability under setting [2] is 1.03 ± 0.02; the normalised cell viability under setting [3] was 1.017 ± 0.0058; the normalised cell viability under setting [4] amounted to 0.901 ± 0.22; the normalised cell viability under setting [5] was found to be 1.007 ± 0.0058; the normalised cell viability under setting [6] is 1.01 ± 0.015.
